This is one part of the list.
B1: PhoQ; a variant is named by its letters at X, in order, P23837 (parent)
chain: MKKLLRLFFPLSLRVRFLLATAAVVLVLSLAYGMVALIGYSVSFDKTTFRLLRGESNLFYTLAKWENNKLHVELPENIDKQSPTMTLIYDENGQLLWAQRDVPWLMKMIQPDWLKSNGFHEIEADVNDTSLLLSGDHSIQQQLQEVREDDDDAEMTHSVAVNVYPATSRMPKLTIVVVDTIPVELKSSYMVWSWFIYVLSANLLLVIPLLWVAAWWSLRPIEALAKEVRELEEHNRELLNPATTRELTSLVRNLNRLLKSERERYDKYRTTLTDLTHSLKTPLXXLQXXLRSLRSEKMSVSDAEPVMLEQISRISQQIGYYLHRASMRGGTLLSRELHPVAPLLDNLTSALNKVYQRKGVNISLDISPEISFVGEQNDFVEVMGNVLDNACKYCLEFVEISARQTDEHLYIVVEDDGPGIPLSKREVIFDRGQRVDTLRPGQGVGLAVAREITEQYEGKIVAGESMLGGARMEVIFGRQHSAPKDE

Variants of: B1
Assay: enrichment ratio after two sorts for PhoP signalling (ratio (wild type AVST 3.29)); higher = more functional
Details: with PhoP (E. coli)

Variant	enrichment ratio
EPDA	≤ 0.25
MIGH	18.2
NNDQ	≤ 0.25
YYHA	≤ 0.25
FGEI	≤ 0.25
WKRD	≤ 0.25
LAKS	≤ 0.25
ITDE	≤ 0.25
NNAS	≤ 0.25
MRCF	≤ 0.25
ESNW	≤ 0.25
IFMD	≤ 0.25
LHHV	≤ 0.25
SVAE	13.4
SFKN	≤ 0.25
LEHR	≤ 0.25
RKAC	≤ 0.25
IVFG	≤ 0.25
TGMH	14.5
PFAK	≤ 0.25
LGVL	≤ 0.25
HIIH	≤ 0.25
GYWM	≤ 0.25
HYGW	≤ 0.25

Variant	enrichment ratio
ESGH	≤ 0.25
HQEG	≤ 0.25
LYDW	≤ 0.25
EKNY	≤ 0.25
YMIL	≤ 0.25
NEVR	≤ 0.25
RYYE	≤ 0.25
EYLS	≤ 0.25
KETW	≤ 0.25
IMWQ	≤ 0.25
TKAR	≤ 0.25
HNCR	≤ 0.25
SKAP	0.382
MRQY	≤ 0.25
YNAS	≤ 0.25
TRGP	≤ 0.25
WPMG	≤ 0.25
NLSA	≤ 0.25
LWTE	≤ 0.25
VHRS	≤ 0.25
MSGH	0.805
PQPD	≤ 0.25
ICTE	≤ 0.25
YVWK	≤ 0.25

Variant	enrichment ratio
MESD	≤ 0.25
GDAH	≤ 0.25
VPHQ	≤ 0.25
WCER	≤ 0.25
EDRR	≤ 0.25
TWCF	≤ 0.25
NDIS	≤ 0.25
DFWY	≤ 0.25
QRGA	≤ 0.25
WHEK	≤ 0.25
RSEC	≤ 0.25
ESNK	≤ 0.25
SAGT	≤ 0.25
YQMR	≤ 0.25
ESVV	≤ 0.25
SKRH	≤ 0.25
KHPH	≤ 0.25
PYSS	≤ 0.25
MQHY	12.6
VTSM	6.31
VKTW	≤ 0.25
FQNM	≤ 0.25
DEIR	≤ 0.25
RPFG	≤ 0.25

Variant	enrichment ratio
QNFC	≤ 0.25
KNVL	≤ 0.25
AQHI	≤ 0.25
LWHR	≤ 0.25
VPPG	≤ 0.25
NAGM	≤ 0.25
SATM	7.5
RHNS	≤ 0.25
KPRI	≤ 0.25
GCRN	≤ 0.25
YTII	≤ 0.25
QLSF	≤ 0.25
VFSV	≤ 0.25
NTSP	≤ 0.25
WFND	≤ 0.25
FAKA	≤ 0.25
KFVQ	≤ 0.25
NQRV	≤ 0.25
RDKM	≤ 0.25
LSNQ	≤ 0.25
LWTV	≤ 0.25
RNAP	≤ 0.25
CTNF	≤ 0.25
WYSY	≤ 0.25

Variant	enrichment ratio
GPCN	≤ 0.25
NEPI	≤ 0.25
NDVR	≤ 0.25
FFSD	≤ 0.25
WHKP	≤ 0.25
NEGT	≤ 0.25
QHEW	≤ 0.25
IDGK	≤ 0.25
HLFH	≤ 0.25
DWPK	≤ 0.25
GQLC	2.58
LWTF	≤ 0.25
YPAC	≤ 0.25
LNFM	≤ 0.25
KFFD	≤ 0.25
IERT	≤ 0.25
HVTF	≤ 0.25
MGSR	≤ 0.25
TMGF	13.3
STGN	6.31
VWIS	≤ 0.25
NMHC	≤ 0.25
NHPM	≤ 0.25
YKPN	≤ 0.25

Variant	enrichment ratio
SFCD	≤ 0.25
PRDT	≤ 0.25
YWAV	≤ 0.25
DQSF	≤ 0.25
FDHT	≤ 0.25
NWGP	≤ 0.25
IENS	≤ 0.25
SSIK	≤ 0.25
FTSY	≤ 0.25
QQLE	≤ 0.25
SKNA	≤ 0.25
IWID	≤ 0.25
HEGD	≤ 0.25
KQQG	≤ 0.25
VICG	≤ 0.25
KQKV	≤ 0.25
VPER	≤ 0.25
IASM	0.484
GWLQ	≤ 0.25
AQWF	≤ 0.25
DALT	≤ 0.25
HKRH	≤ 0.25
EPYC	≤ 0.25
WPHR	≤ 0.25

Variant	enrichment ratio
YENV	≤ 0.25
IVSW	≤ 0.25
IYCF	≤ 0.25
LMGH	≤ 0.25
YYFG	≤ 0.25
VSMN	≤ 0.25
HQSK	0.452
VEAC	0.99
QTMI	≤ 0.25
FRMH	≤ 0.25
YARP	≤ 0.25
IQCG	≤ 0.25
GSYT	≤ 0.25
YQCS	≤ 0.25
QKYM	≤ 0.25
HMGW	≤ 0.25
RPCP	≤ 0.25
KEDL	≤ 0.25
NAPP	≤ 0.25
LHFV	≤ 0.25
LPWG	≤ 0.25
IWRG	≤ 0.25
SFGI	≤ 0.25
HNMC	≤ 0.25

Variant	enrichment ratio
HDMF	≤ 0.25
IEFI	≤ 0.25
VHLQ	≤ 0.25
FHAM	≤ 0.25
WNPL	≤ 0.25
VMCD	≤ 0.25
TTKM	≤ 0.25
ELAH	≤ 0.25
QDYD	≤ 0.25
KEYM	≤ 0.25
ANKE	≤ 0.25
VMKG	≤ 0.25
YGVM	1.53
ALAD	≤ 0.25
QLGI	≤ 0.25
HDIY	≤ 0.25
SNDP	≤ 0.25
PTVP	≤ 0.25
GNPC	≤ 0.25
YAWP	≤ 0.25
VALI	10.8
HAHW	≤ 0.25
VDFR	≤ 0.25
GNIL	9.55

Variant	enrichment ratio
DCIM	≤ 0.25
YTGN	≤ 0.25
PIWM	≤ 0.25
PAWM	≤ 0.25
PYPR	≤ 0.25
KWSH	≤ 0.25
TDKT	≤ 0.25
QKQV	≤ 0.25
YWPG	≤ 0.25
DTTF	≤ 0.25
IEDT	≤ 0.25
ENFI	≤ 0.25
KVKL	≤ 0.25
TKMR	≤ 0.25
AKTM	0.775
DRGA	≤ 0.25
EYVG	≤ 0.25
IGIA	≤ 0.25
QFPA	≤ 0.25
MNEP	≤ 0.25
PACT	≤ 0.25
VKPW	≤ 0.25
IGIF	≤ 0.25
GGLH	2.42

Variant	enrichment ratio
KTPA	≤ 0.25
QERW	≤ 0.25
RCHW	≤ 0.25
EADH	≤ 0.25
IRLG	≤ 0.25
DDPS	≤ 0.25
MEEE	≤ 0.25
TWRV	≤ 0.25
KEFA	≤ 0.25
DMPK	≤ 0.25
NNLE	≤ 0.25
PKLP	0.31
TAVV	1.05
WSFV	≤ 0.25
YERI	≤ 0.25
KDEG	≤ 0.25
SSPY	≤ 0.25
HIST	≤ 0.25
GMTR	≤ 0.25
EKTY	≤ 0.25
WEFC	≤ 0.25
SLGY	1.84
AFIV	≤ 0.25
DYWR	≤ 0.25

Variant	enrichment ratio
ATCF	10
FETM	3.22
PASL	≤ 0.25
EPDN	≤ 0.25
INEE	≤ 0.25
RELK	≤ 0.25
TIFT	≤ 0.25
KMTI	≤ 0.25
SYCT	≤ 0.25
YLHC	≤ 0.25
GNNM	≤ 0.25
QLKF	≤ 0.25
TRET	≤ 0.25
DAFI	≤ 0.25
ELIP	≤ 0.25
IKEA	≤ 0.25
FQCV	≤ 0.25
TLYP	1.58
HFCW	≤ 0.25
KTDP	≤ 0.25
DCVV	≤ 0.25
RVLD	≤ 0.25
IVDF	≤ 0.25
KNLW	≤ 0.25

Variant	enrichment ratio
HEVQ	≤ 0.25
QMCK	≤ 0.25
GTAH	≤ 0.25
ALSN	6.57
MKWC	≤ 0.25
FMRH	≤ 0.25
AFYA	≤ 0.25
ISCW	≤ 0.25
KGHI	≤ 0.25
APWP	≤ 0.25
IVYH	≤ 0.25
HELH	≤ 0.25
KFLS	≤ 0.25
VICN	≤ 0.25
SKQC	≤ 0.25
ILYF	≤ 0.25
LELV	3.1
GPPQ	≤ 0.25
QTKT	≤ 0.25
DFNS	≤ 0.25
SWCT	≤ 0.25
PGSH	≤ 0.25
GYFR	≤ 0.25
VMNC	≤ 0.25

Variant	enrichment ratio
SWFP	≤ 0.25
YMRN	≤ 0.25
LMVL	≤ 0.25
VWYG	≤ 0.25
VQKC	≤ 0.25
YFIY	≤ 0.25
PPCN	≤ 0.25
SFPP	≤ 0.25
QAVW	≤ 0.25
WDAM	≤ 0.25
WESA	≤ 0.25
TTRA	≤ 0.25
WFGW	≤ 0.25
QRCG	≤ 0.25
KFSE	≤ 0.25
VMWM	≤ 0.25
WHKK	≤ 0.25
NVAD	≤ 0.25
